In this series the test system is ATP. As to the kind of experiment: switch fluorescence ratio, 500 uM ATP over buffer (Cy3 cluster intensity, sum of 5 cycles each) (fold (ratio)); higher = stronger signal-on switching upon ATP binding; sequences stand for … in TCGTCGGCAGCGTCAGATGTGTATAAGAGACAGTTTTTTTTTTTTTTTTTTTTTTTTT…TC. The conditions noted are these: aptamer strand: ATP DNA aptamer (quencher-CACCTGGGGGAGTATTGCGGAGGAAGG + anchor), 100 nM annealed; ATP concentration: 500 uM; one replicate. In a few lines: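 The fluorescence ratio divides summed target-cycle Cy3 intensity by summed buffer-cycle Cy3 intensity for each cluster and is averaged per switch-domain sequence. Cy3-labelled switching-strand clusters on a modified Illumina MiSeq flow-cell were annealed to 100 nM quencher-labelled ATP aptamer, then imaged in selection buffer and again after 15 min with 500 uM ATP at 22 °C. Five such cycles were run, with NaOH stripping and re-annealing between them, and clusters outside 100-1000 RFU were excluded.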

Sequences with one replicate were seen in a single cluster, so their values are uncertain.
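Further: ATP exposure 15 min at 22 °C before imaging.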

With CCAAGGCAAG, the switch fluorescence ratio was 4.

As to TCATACGC, the switch fluorescence ratio worked out at 1.05.

With CTAATGTCGT, the switch fluorescence ratio was determined as 1.02.

As for TCCACGTGCT, the switch fluorescence ratio turned out to be 0.974.

For the sequence ATTCGGCGAC, the switch fluorescence ratio was 1.01.

As to CCCGGAGTCG, the switch fluorescence ratio is 0.984.

With CTTGGGATAT, the switch fluorescence ratio worked out at 1.03.

Regarding TCGCGCTGTG, the switch fluorescence ratio is 1.01.

AACTGTCCGA: the switch fluorescence ratio amounted to 1.11.

For GTAGCGTAGG, the switch fluorescence ratio was determined as 0.997.

For the sequence GGTACCGTAA, the switch fluorescence ratio worked out at 1.08.

For the sequence AAAATCAGTA, the switch fluorescence ratio stood at 0.974.

Turning to TCAAAATTGT, the switch fluorescence ratio worked out at 1.04.

In the case of AGCTAAGGGA, the switch fluorescence ratio worked out at 1.

For CATTGGCAAG, the switch fluorescence ratio stood at 1.15.

AAATTAAGTG: the switch fluorescence ratio stood at 0.903.

In the case of ATGGTCCTTT, the switch fluorescence ratio is 1.02.

On to TCTGCGTGGC, for which the switch fluorescence ratio worked out at 0.999.

Consider ACCGAGCATT, for which the switch fluorescence ratio was found to be 2.08.

With CGTTGGGTGT, the switch fluorescence ratio was found to be 0.961.

In the case of TAGCCGAAGA, the switch fluorescence ratio came out at 0.973.

Regarding ACCGCCCCGT, the switch fluorescence ratio is 2.45.

GCGGTTGGTC: the switch fluorescence ratio amounted to 1.05.

For the sequence TCGGAAGAGC, the switch fluorescence ratio came to 1.02.

Take CGGGAACATA: the switch fluorescence ratio was found to be 1.02.

Consider ATTCAGATGT, for which the switch fluorescence ratio was 1.04.

For the sequence ACAACACGCA, the switch fluorescence ratio was found to be 1.34.

With TGGTTTATAG, the switch fluorescence ratio was determined as 1.

On to TGCTTAATCT, for which the switch fluorescence ratio is 0.978.

Regarding TATTCGAGA, the switch fluorescence ratio is 1.02.

With TCCTATGTGC, the switch fluorescence ratio turned out to be 1.08.

With CAGTAACCAG, the switch fluorescence ratio turned out to be 0.991.

On to ATGTGTAAGC, for which the switch fluorescence ratio amounted to 0.966.

On to TCGTTCTGCT, for which the switch fluorescence ratio stood at 1.

On to TTATTTGTAA, for which the switch fluorescence ratio is 0.995.

As for CCTTGATTTC, the switch fluorescence ratio is 0.977.

With GTAGGCGACT, the switch fluorescence ratio amounted to 0.986.

Consider ATTCAATTAA, for which the switch fluorescence ratio turned out to be 1.01.

For GCTTACGGCA, the switch fluorescence ratio was 0.964.

Consider AGATCGGGT, for which the switch fluorescence ratio is 0.97.

As to TTTGGAAACT, the switch fluorescence ratio stood at 1.06.

For ACTCATGTCG, the switch fluorescence ratio came to 1.

Regarding GCCTGTAGCA, the switch fluorescence ratio is 1.06.

With TTGAAAGGAA, the switch fluorescence ratio amounted to 0.976.

TCAGTCAGGT: the switch fluorescence ratio stood at 0.975.

Take TCGTCGTT: the switch fluorescence ratio amounted to 1.01.

As for AGTCATGTT, the switch fluorescence ratio amounted to 0.946.

ACTAGACCGT: the switch fluorescence ratio was 1.06.

CAGGAGTACG: the switch fluorescence ratio turned out to be 0.949.

As to GGCACCGGGC, the switch fluorescence ratio was 1.04.

For GGTATATATT, the switch fluorescence ratio was 1.01.

On to CTTGTGGGCA, for which the switch fluorescence ratio is 0.996.

For TTTCAGTTTA, the switch fluorescence ratio turned out to be 0.99.

CGAAGAGGAT: the switch fluorescence ratio turned out to be 0.986.

Regarding GGGACGTACC, the switch fluorescence ratio was determined as 1.18.

On to AAGAGTGGAA, for which the switch fluorescence ratio was 1.01.

Regarding TCATTCCTTA, the switch fluorescence ratio stood at 1.03.

With GCATTCCAGA, the switch fluorescence ratio came out at 1.01.

Take CAAATGGAAA: the switch fluorescence ratio is 0.981.

As for AGGAAGTTAC, the switch fluorescence ratio was 1.11.

Turning to TCCCAACCG, the switch fluorescence ratio was 1.04.

On to ACCATTAGGA, for which the switch fluorescence ratio was 1.

In the case of TAGTCGCGCG, the switch fluorescence ratio worked out at 0.986.

As for GACTAATGGG, the switch fluorescence ratio amounted to 1.06.

GGAGCCTCGG: the switch fluorescence ratio is 0.975.

For TAACACCGTT, the switch fluorescence ratio came out at 0.992.

In the case of AAACGGATTG, the switch fluorescence ratio amounted to 1.01.

On to TTCAGCGGGC, for which the switch fluorescence ratio worked out at 1.09.

For ATGGATAACC, the switch fluorescence ratio was 1.

ATTCAAAGGC: the switch fluorescence ratio stood at 1.06.

CCATAATATC: the switch fluorescence ratio turned out to be 1.26.

With CCTATTATA, the switch fluorescence ratio worked out at 0.934.

On to ATCCTATGTT, for which the switch fluorescence ratio is 0.999.

Consider GGATCATCGG, for which the switch fluorescence ratio was determined as 0.982.

As for AACAGACAAG, the switch fluorescence ratio is 1.04.

Regarding GTTGTGGCGA, the switch fluorescence ratio was determined as 0.973.

Turning to GCACACTAGA, the switch fluorescence ratio is 1.01.

AGCCCGGTCG: the switch fluorescence ratio was 0.959.

As to TAAAAGAGA, the switch fluorescence ratio was 1.01.

CTTGGTTGGA: the switch fluorescence ratio was 0.978.

Take GTGGGTACAG: the switch fluorescence ratio came to 0.993.

For the sequence ACCGGCAAAC, the switch fluorescence ratio worked out at 1.3.

For the sequence CACGCCAAGG, the switch fluorescence ratio was 1.32.

Take TTGTATTCG: the switch fluorescence ratio was found to be 1.05.

In the case of TATTGAAACC, the switch fluorescence ratio is 1.03.

In the case of GGTGTCTTGG, the switch fluorescence ratio stood at 0.976.

On to AATTTATGGT, for which the switch fluorescence ratio worked out at 0.992.

Consider CTTAAAGGTT, for which the switch fluorescence ratio was found to be 1.01.

As to AGTTCACTGC, the switch fluorescence ratio turned out to be 1.03.

Take CGCTCGAGTG: the switch fluorescence ratio was 0.997.

As for AGTCGAAAAC, the switch fluorescence ratio came out at 1.01.

GTTAGAGTAA: the switch fluorescence ratio was 0.978.

Consider ATCCAGGCTC, for which the switch fluorescence ratio came to 0.989.

Take TTCCTTTGGC: the switch fluorescence ratio turned out to be 0.983.

Consider ACGCGATGCG, for which the switch fluorescence ratio was determined as 1.03.

In the case of CTAAGGGTAG, the switch fluorescence ratio worked out at 1.82.

With GCAGCATTT, the switch fluorescence ratio came to 1.14.

For the sequence TGGTATACGC, the switch fluorescence ratio turned out to be 1.04.

With CTAAGTTTGC, the switch fluorescence ratio amounted to 0.968.

As to ACACGGGGCA, the switch fluorescence ratio amounted to 1.01.

Consider GGGCCCAATT, for which the switch fluorescence ratio is 1.02.

Consider ATGTAACGAT, for which the switch fluorescence ratio came out at 1.03.

With TAGCTTGCGC, the switch fluorescence ratio is 0.982.

For GCCCCTCTGA, the switch fluorescence ratio amounted to 0.987.

TTGAGGTTTC: the switch fluorescence ratio turned out to be 0.979.

With CAAGTGGACT, the switch fluorescence ratio came out at 1.01.

As to GCCTTAGCT, the switch fluorescence ratio was found to be 0.999.

In the case of TCTTAGTCGG, the switch fluorescence ratio was determined as 1.

With GGTTGCAAGG, the switch fluorescence ratio was determined as 0.975.

On to CACAGTAGT, for which the switch fluorescence ratio worked out at 1.08.

In the case of TACATCGGTA, the switch fluorescence ratio was 0.989.

As for ATGCTTGCCC, the switch fluorescence ratio was 0.996.

On to TAGGGCAAAG, for which the switch fluorescence ratio is 1.02.

For the sequence AAACCTTTCG, the switch fluorescence ratio was found to be 2.27.

With CACCAACTGT, the switch fluorescence ratio is 1.15.

On to TTTGCACTCC, for which the switch fluorescence ratio is 1.44.

As for TCGCTGAGCA, the switch fluorescence ratio was determined as 1.01.

CTCGGAATTG: the switch fluorescence ratio stood at 1.07.

Consider CTGGCTTCGA, for which the switch fluorescence ratio amounted to 1.

Turning to CAACTAAGCC, the switch fluorescence ratio came to 0.983.

Source of the values: the supplement of paper PMC10126150.
